PubChem BioAssay AID1745845 (National Center for Advancing Translational Sciences (NCATS), 2022)
Where “and” joins values, the source holds several entries; their conditions need not be identical. Identical values can stand only once. Screen size: about 360,000 compounds; about 2,600 (0.72%) were called active. Inconclusive means that the source gave no clear call. Such entries were picked first, then a sample of the others. Calls follow the shape of the dose curve; as a rule, active = well fitted inhibition curve with a large enough effect; inconclusive = small, poorly fitted or top-dose-only effect; inactive = no such curve, though single readings can be large or run the other way. Where the call is inconclusive, the potency comes from a doubtful curve fit. More than one record can exist for a structure, and the calls need not agree.
% is scaled to controls: 0 for no effect and ±100 for the full control effect; potency is read from the fitted curve at half-maximal effect; tags tell the direction and shape of the fitted curve.

Assay: Primary qHTS for Inhibitors of ATXN expression; also: nearly all actives have a fitted effect of over 55% in size
Conditions: HEK-293 ATXN2-luciferase reporter, luminescence, 24 h; activity change, negative = inhibition: at 57 µM (top of the series)
Summary of the method: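 ATXN2-luciferase reporter cells (luciferase flanked by upstream and downstream ATXN2 gene portions) were treated 24 h at 37 °C with compounds at up to 57 uM. SteadyGlo luminescence gave expression; GF-AFC fluorescence gave viability.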
In the case of `COc1cc(/C=C2/CC/C(=C/c3ccc(O)c(OC)c3)C2=O)ccc1O`, the “activity change, negative = inhibition” value is reported as inactive: -3.42%.
In the case of `Clc1cccc2c1Sc1ccccc1CC2N1CCNCC1` (centres undefined), the Potency is reported as inconclusive: 2.67 µM [inhibitor, partial curve, poor fit].
In the case of `CC(C)N(C(=O)CSc1nnnn1C1CCCC1)C(C)C`, the “activity change, negative = inhibition” value is reported as inactive: 7.91%.
With `COc1ccc(OC)c(Nc2nc(NCc3ccco3)nc(N)c2[N+](=O)[O-])c1` the Potency was inconclusive: 10 µM [inhibitor, partial curve, poor fit].
With `CCOC(=O)[C@]12CCCC=C1N(Cc1ccco1)C(=O)[C@H](CC(=O)NCc1cccc3ccccc13)C2` the Potency was inconclusive: 39.8 µM [inhibitor, partial curve, poor fit].
In the case of `COc1ccc(CCNC(=O)c2ccc3c(c2)N(Cc2ccc(C)cc2)CCS3)cc1OC`, the “activity change, negative = inhibition” value is reported as inactive: 12.1%.
With `Cc1c(C(=O)Nc2ccc(F)c(F)c2)oc2ccc(S(=O)(=O)N3CCCCC3)cc12` the Potency was “inactive and inconclusive: 1 µM [inhibitor, partial curve, poor fit]”.
For `CC1(C)CC(=O)C2=C(C1)Nc1ccccc1NC2c1ccccc1F` (centres undefined), the “activity change, negative = inhibition” value was inactive: 6.79%.
For `CN(CC(=O)Nc1cccc(Cl)c1)S(=O)(=O)c1ccc2[nH]c3c(c2c1)CCCC3`, the Potency was inconclusive: 22.4 µM [inhibitor, single point].
With `O=C(Nc1nc(-c2nc3ccccc3s2)cs1)c1ccc(S(=O)(=O)N2CCOCC2)cc1` the Potency was inconclusive: 39.8 µM [inhibitor, single point].
For `CC[C@]12c3[nH]c4ccc(Cl)cc4c3CCN1C(=O)[C@@H](CC(=O)NCc1cccc(C(F)(F)F)c1)C[C@@H]2C(=O)N1CCN(C(=O)C2CC2)CC1`, the Potency was inconclusive: 35.5 µM [inhibitor, single point].
For `C#Cc1cc(N2CCN(C(=O)c3ccoc3)CC2)n2nc(-c3cccc(Cl)c3)cc2n1`, the Potency was inconclusive: 39.8 µM [inhibitor, single point].
In the case of `CCc1cccc(N(C)C(N)=Nc2cccc3ccccc23)c1`, the Potency is reported as inconclusive: 28.2 µM [inhibitor, partial curve].
For `Cn1c(N)c(C(=O)COC(=O)c2cccnc2Cl)c(=O)n(C)c1=O`, the “activity change, negative = inhibition” value was inactive: 4.22%.
In the case of `COc1cc2ccccc2cc1C(=O)N1CCN(c2nc3c(C)cc(C)cc3s2)CC1`, the Potency is reported as inconclusive: 35.5 µM [inhibitor, single point].
With `COC(=O)c1ccsc1NC(=O)CN1CCN(Cc2ccc3c(c2)OCO3)CC1` the Potency was inconclusive: 25.1 µM [inhibitor, single point].
For `CC1(C(=O)Nc2cccc(OC(F)(F)F)c2)Cc2c(-c3ccc(C(N)=O)cc3)ccnc2O1` (centres undefined), the Potency was inconclusive: 31.6 µM [inhibitor, single point].
For `CCN(CC)S(=O)(=O)c1cccc(C(=O)N/N=C(\C)c2ccc(O)cc2O)c1`, the Potency was active: 2.38 µM.
With `CN1C/C(=C/c2cccnc2)C(=O)/C(=C/c2cccnc2)C1` the Potency was active: 20 µM.
With `O=C(Nc1ccccc1N1CCCC1)c1ccc([N+](=O)[O-])o1` the Potency was inconclusive: 3.55 µM [inhibitor, partial curve].
With `CNc1ccc(Cl)nn1` the “activity change, negative = inhibition” value was inactive: 3.68%.
With `Cc1cc(C)c(CSc2ncnc3nc[nH]c23)c(C)c1` the “activity change, negative = inhibition” value was inactive: -19.9%.
With `O=C(/C=C/c1ccc(N2CCCCC2)c([N+](=O)[O-])c1)c1ccc(O)cc1` the “activity change, negative = inhibition” value was inactive: 9.68%.
In the case of `CCOc1ccccc1-n1c(CNc2ccc(F)cc2)nnc1SCC(=O)NCc1ccco1`, the “activity change, negative = inhibition” value is reported as inactive: 0.132%.
With `COc1cccc(-c2cnc3c(NC(C)=O)cc(-c4cccc(C(=O)NCCN(C)C)c4)cn23)c1` the Potency was inconclusive: 39.8 µM [inhibitor, single point].
In the case of `CNC(=S)Nc1ccc(Cc2ccncc2)cc1`, the “activity change, negative = inhibition” value is reported as inactive: 2.92%.
For `COc1ccc(-n2c(-c3ccc(Cl)cc3)c[n+]3c2CCc2ccccc2-3)cc1`, the Potency was inconclusive: 7.94 µM [inhibitor, partial curve].
For `O=C1NC2(CCCCC2)N=C1c1ccc(Br)cc1`, the “activity change, negative = inhibition” value was inactive: -26.5%.
In the case of `Cc1cc(N2C(=O)C3C4CCC(C4)C3C2=O)no1` (centres undefined), the “activity change, negative = inhibition” value is reported as inactive: 4.62%.
For `Cc1ccc(S(=O)(=O)/C(C#N)=C/c2c(N3CCC(C(N)=O)CC3)nc3c(C)cccn3c2=O)cc1`, the “activity change, negative = inhibition” value was inactive: 0.919%.
With `CC(C)Oc1ccc(C(=O)Nc2nc3ccccc3[nH]2)cc1` the Potency was active: 4.47 µM.
In the case of `Cc1ccc(C(=O)c2c(C)oc3c2C(=O)C(=O)c2ccccc2-3)cc1`, the Potency is reported as inconclusive: 35.5 µM [inhibitor, single point].
In the case of `Ic1ccc(N2CCN(Cc3c[nH]c4ncccc34)CC2)cc1`, the Potency is reported as inconclusive: 8.91 µM [inhibitor, partial curve].
For `CCOC(=O)N1CCN(C(=O)C2CCCN(S(=O)(=O)c3cc(C)ccc3OC)C2)CC1` (centres undefined), the “activity change, negative = inhibition” value was inactive: -6.19%.
With `O=c1oc(-c2ccccc2)nc2c1cnn2-c1ccccc1` the “activity change, negative = inhibition” value was inactive: -1.15%.
For `COc1ccc(OCc2nnc3n2N=C(c2ccc(Br)cc2)CS3)cc1`, the Potency was inconclusive: 31.6 µM [inhibitor, single point].
In the case of `Cc1cc(C2=NNC(=NC3CC3)SC2)c(C)n1Cc1ccco1`, the Potency is reported as inconclusive: 0.316 µM [inhibitor, partial curve, poor fit].
With `Cc1ccc(C(=O)c2coc3cc([N+](=O)[O-])c(O)c([N+](=O)[O-])c23)cc1` the “activity change, negative = inhibition” value was inactive: -0.338%.
In the case of `COc1ccc(CNc2nc(S(=O)(=O)c3ccccc3)c(Cl)s2)cc1OC`, the Potency is reported as inconclusive: 29.9 µM [inhibitor, partial curve, poor fit].
For `FC(F)(F)c1cccc(NC(=S)Nc2ccc(Cl)cc2Cl)c1`, the Potency was inconclusive: 35.5 µM [inhibitor, single point].
In the case of `COc1cc(Nc2nc3c(N)cc(C(F)(F)F)cc3nc2-c2ccccc2)cc(OC)c1OC`, the “activity change, negative = inhibition” value is reported as inactive: -14.1%.
With `O=C(NC(=S)Nc1cc(C(F)(F)F)ccc1N1CCOCC1)c1ccco1` the Potency was inconclusive: 15.8 µM [inhibitor, partial curve, poor fit].
In the case of `c1csc(CNc2nc(NCC3CCCCC3)c3sccc3n2)c1`, the Potency is reported as inconclusive: 28.2 µM [inhibitor, single point].
In the case of `COc1cccc2c1C(=O)c1c(O)c3c(c(O)c1C2=O)C[C@@](O)(C(C)=O)C[C@@H]3O[C@H]1C[C@H](N)[C@H](O)[C@H](C)O1`, the Potency is reported as active: 10 µM.
